# Measurements taken from the supplement of paper PMC8728848.
# The list shows a part of the results.
# B1: HPAIIITrx (Helix pomatia), Q1KM18 (protein)
# chain: MLFVTIISLGLLAIVHGQCALKTIAFSAAIDREQTFDANQVVIYDIVITNHGNAYDNSTGLFTAPVDGMYSFQLNLLTIKEKEGWLELVHNGQLKVSVYAKQDSTYDSSSNSVIIKMKEGDRVNVRAHKKSGLFGRDDELYNTFSGHFLSGL
# Tests used:
# Assay in all cases: glycan array binding signal (z-score within array); higher = stronger binding
# Conditions in all cases: glycan notation: IUPAC condensed, linker removed
# [1] = target: Gal(b1-4)GlcNAc(b1-3)Gal(b1-4)GlcNAc(b1-3)Gal(b1-4)GlcNAc(b1-3)Gal(b1-4)GlcNAc(b1-2)Man(a1-3)[Gal(b1-4)GlcNAc(b1-3)Gal(b1-4)GlcNAc(b1-3)Gal(b1-4)GlcNAc(b1-3)Gal(b1-4)GlcNAc(b1-2)Man(a1-6)]Man(b1-4)GlcNAc(b1-4)[Fuc(a1-6)]GlcNAc
# Outline: (§1)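 Glycan array binding is given as a within-array Z-score, which can be read as non-binding when negative. The arrays, 3228 of them, came from the Consortium for Functional Glycomics database and were retained only where the protein sequence was available. Z-scores were averaged across arrays of the same protein sequence at different concentrations or buffers and across linkers.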
# [2] = target: Gal(b1-4)GlcNAc(b1-3)Gal(b1-4)GlcNAc(b1-3)Gal(b1-4)GlcNAc(b1-3)Gal(b1-4)GlcNAc(b1-2)[Gal(b1-4)GlcNAc(b1-3)Gal(b1-4)GlcNAc(b1-3)Gal(b1-4)GlcNAc(b1-3)Gal(b1-4)GlcNAc(b1-6)]Man(a1-6)[Gal(b1-4)GlcNAc(b1-3)Gal(b1-4)GlcNAc(b1-3)Gal(b1-4)GlcNAc(b1-3)Gal(b1-4)GlcNAc(b1-2)Man(a1-3)]Man(b1-4)GlcNAc(b1-4)[Fuc(a1-6)]GlcNAc
# Outline: as §1
# [3] = target: Gal(b1-4)GlcNAc(b1-3)Gal(b1-4)GlcNAc(b1-3)Gal(b1-4)GlcNAc(b1-3)Gal(b1-4)GlcNAc(b1-3)Gal(b1-4)GlcNAc(b1-2)Man(a1-3)[Gal(b1-4)GlcNAc(b1-3)Gal(b1-4)GlcNAc(b1-3)Gal(b1-4)GlcNAc(b1-3)Gal(b1-4)GlcNAc(b1-3)Gal(b1-4)GlcNAc(b1-2)Man(a1-6)]Man(b1-4)GlcNAc(b1-4)GlcNAc
# Outline: as §1
# [4] = target: Gal(b1-4)GlcNAc(b1-3)Gal(b1-4)GlcNAc(b1-3)Gal(b1-4)GlcNAc(b1-3)Gal(b1-4)GlcNAc(b1-3)Gal(b1-4)GlcNAc(b1-2)Man(a1-3)[Gal(b1-4)GlcNAc(b1-3)Gal(b1-4)GlcNAc(b1-3)Gal(b1-4)GlcNAc(b1-3)Gal(b1-4)GlcNAc(b1-3)Gal(b1-4)GlcNAc(b1-2)Man(a1-6)]Man(b1-4)GlcNAc(b1-4)[Fuc(a1-6)]GlcNAc
# Outline: as §1
# [5] = target: Gal(b1-4)GlcNAc(b1-3)Gal(b1-4)GlcNAc(b1-3)Gal(b1-4)GlcNAc(b1-3)Gal(b1-4)GlcNAc(b1-3)Gal(b1-4)GlcNAc(b1-2)[Gal(b1-4)GlcNAc(b1-3)Gal(b1-4)GlcNAc(b1-3)Gal(b1-4)GlcNAc(b1-3)Gal(b1-4)GlcNAc(b1-3)Gal(b1-4)GlcNAc(b1-6)]Man(a1-6)[Gal(b1-4)GlcNAc(b1-3)Gal(b1-4)GlcNAc(b1-3)Gal(b1-4)GlcNAc(b1-3)Gal(b1-4)GlcNAc(b1-3)Gal(b1-4)GlcNAc(b1-2)Man(a1-3)]Man(b1-4)GlcNAc(b1-4)[Fuc(a1-6)]GlcNAc
# Outline: as §1
# [6] = target: Gal(b1-4)GlcNAc(b1-3)Gal(b1-4)GlcNAc(b1-3)Gal(b1-4)GlcNAc(b1-3)Gal(b1-4)GlcNAc(b1-3)Gal(b1-4)GlcNAc(b1-3)Gal(b1-4)GlcNAc(b1-2)Man(a1-3)[Gal(b1-4)GlcNAc(b1-3)Gal(b1-4)GlcNAc(b1-3)Gal(b1-4)GlcNAc(b1-3)Gal(b1-4)GlcNAc(b1-3)Gal(b1-4)GlcNAc(b1-3)Gal(b1-4)GlcNAc(b1-2)Man(a1-6)]Man(b1-4)GlcNAc(b1-4)GlcNAc
# Outline: as §1
# [7] = target: Gal(b1-4)GlcNAc(b1-3)Gal(b1-4)GlcNAc(b1-3)GalNAc
# Outline: as §1
# [8] = target: Gal(b1-4)GlcNAc(b1-3)Gal(b1-4)GlcNAc(b1-3)[Gal(b1-4)GlcNAc(b1-3)Gal(b1-4)GlcNAc(b1-6)]GalNAc
# Outline: as §1
# [9] = target: Gal(b1-4)GlcNAc(b1-3)Gal(b1-4)GlcNAc(b1-6)[Gal(b1-3)]GalNAc
# Outline: as §1
# [10] = target: Gal(b1-4)GlcNAc(b1-3)Gal(b1-4)[Fuc(a1-3)]GlcNAc(b1-3)Gal(b1-4)[Fuc(a1-3)]GlcNAc
# Outline: as §1
# [11] = target: Gal(b1-4)GlcNAc(b1-3)GalNAc
# Outline: as §1
# [12] = target: Gal(b1-4)GlcNAc(b1-3)[Fuc(a1-3)GlcNAc(b1-6)]Gal(b1-4)Glc
# Outline: as §1
# [13] = target: Gal(b1-4)GlcNAc(b1-3)[Gal(b1-4)GlcNAc(b1-6)]Gal(b1-4)GlcNAc
# Outline: as §1
# [14] = target: Gal(b1-4)GlcNAc(b1-3)[GlcNAc(b1-6)]Gal(b1-4)GlcNAc
# Outline: as §1
# [15] = target: Gal(b1-4)GlcNAc(b1-6)Gal(b1-4)GlcNAc
# Outline: as §1
# [16] = target: Gal(b1-4)GlcNAc(b1-6)Gal(b1-4)GlcNAc(b1-6)GalNAc
# Outline: as §1
# [17] = target: Gal(b1-4)GlcNAc(b1-6)GalNAc
# Outline: as §1
# [18] = target: Gal(b1-4)GlcNAc(b1-6)[Gal(b1-3)]GalNAc
# Outline: as §1
# [19] = target: Gal(b1-4)GlcNAc(b1-6)[Gal(b1-4)GlcNAc(b1-3)]GalNAc
# Outline: as §1
# [20] = target: Gal(b1-4)GlcNAc6P
# Outline: as §1
# [21] = target: Gal(b1-6)Gal
# Outline: as §1
# [22] = target: Gal3S(b1-3)GalNAc
# Outline: as §1
# [23] = target: Gal3S(b1-3)GlcNAc
# Outline: as §1
binder,measurement,setting,value
B1,glycan array binding signal (z-score),[1],-0.315
same,glycan array binding signal (z-score),[2],-0.227
same,glycan array binding signal (z-score),[3],-0.204
same,glycan array binding signal (z-score),[4],-0.322
same,glycan array binding signal (z-score),[5],-0.322
same,glycan array binding signal (z-score),[6],-0.329
same,glycan array binding signal (z-score),[7],0.088
same,glycan array binding signal (z-score),[8],0.179
same,glycan array binding signal (z-score),[9],0.156
same,glycan array binding signal (z-score),[10],-0.116
same,glycan array binding signal (z-score),[11],-0.185
same,glycan array binding signal (z-score),[12],-0.139
same,glycan array binding signal (z-score),[13],-0.21
same,glycan array binding signal (z-score),[14],-0.312
same,glycan array binding signal (z-score),[15],-0.405
same,glycan array binding signal (z-score),[16],-0.026
same,glycan array binding signal (z-score),[17],-0.158
same,glycan array binding signal (z-score),[18],-0.344
same,glycan array binding signal (z-score),[19],-0.341
same,glycan array binding signal (z-score),[20],0.577
same,glycan array binding signal (z-score),[21],0.217
same,glycan array binding signal (z-score),[22],-0.106
same,glycan array binding signal (z-score),[23],-0.153
